The structures appear in SMILES notation. Screen size: about 52,000 compounds; about 1,700 (3.3%) were called active. No stated cut-off is given here; in the data, active means survival mostly below about 52% (no sharp cut-off); inactive means mostly above about 56%. The list shows a part of the results.

The test system of this assay is Wild type. Briefly: growth inhibition of S. aureus wild type versus tarO mutant, primary screen, teichoic acid synthesis inhibitors, RN4220, OD600 (AID 463173). As to conditions: S. aureus RN4220 wild type/DeltatarO growth, OD600, 18 h, hits give low values, screened at 18.75 µg/mL (by protocol).
As to `Brc1ccc(-c2nc3ccccn3c2Nc2ccc3c(c2)OCCO3)o1`, the survival is inactive: 63%.
`Cc1cccc(N(C)C(=O)CCS(=O)(=O)c2ccc3c(c2)oc(=O)n3C)c1`: the survival is inactive: 71%.
On to `CCOC(=O)c1c(S(=O)(=O)N2CCC(C(=O)NCc3ccc(F)cc3)CC2)c(C)n(C)c1C`, for which the survival is inactive: 85%.
On to `CN(C)S(=O)(=O)c1ccc2c(c1)N(CC(=O)Nc1ccc(OC(F)(F)F)cc1)C(=O)CS2`, for which the survival is inactive: 71%.
Take `C=Cc1ccc(Cn2c(C(=O)O)c(CNC3CCCC3)c3ccc(C)cc32)cc1`: the survival is inactive: 71%.
In the case of `COc1ccc(OCC(=O)NC2CC(=O)N(c3cccc(OC)c3)C2)cc1` (stereo unspecified), the survival was active: -3%.
As for `O=C(/C=C/c1ccco1)Nc1cccc(-c2nc3ccccc3o2)c1`, the figure is inactive: 107%; as for `CCCN(CCC)CC(O)Cn1cc(/C=C/C(=O)c2ccc(C)cc2)c2ccccc21` (stereo unspecified), active: -1%.
The same measure for `CC(C(=O)NCc1ccc(Cl)cc1)n1ccc2cc(S(=O)(=O)N3CCCCCC3)ccc21` (stereo unspecified): inactive: 124%; for `COc1ccc(NC(=O)c2cc(S(=O)(=O)N3CCCCCC3)cn2C)c(OC)c1`: inactive: 77%; for `O=C1c2cccc3c(N4CCCC4)ccc(c23)C(=O)N1c1ccccc1`: inactive: 108%.
For the compound `COc1ccc(OC)c(CNC(=O)c2c3c(nc4ccccc24)C(=O)N(C2CCCCC2)C3)c1`, the survival was inactive: 74%.
For the compound `O=C(NCc1ccccc1Cl)C1CCCN(S(=O)(=O)c2cccc3nsnc23)C1` (stereo unspecified), the survival is inactive: 83%.
On to `CCOC(=O)c1c(C)[nH]c(C)c1S(=O)(=O)N1CCC(C(=O)N2CCN(c3ccccc3)CC2)CC1`, for which the survival was inactive: 72%.
Take `CCC(=O)N1CCc2cc(Br)cc(S(=O)(=O)N3CCN(c4ccc(C)cc4)C(C)C3)c21` (stereo unspecified): the survival is inactive: 139%.
As to `Cc1ccccc1-c1noc(-c2cccnc2NCc2ccco2)n1`, the survival is inactive: 79%.
With `CC(=O)N1CCc2cc(C(=O)C[n+]3ccccc3)ccc21`, the survival is inactive: 93%.
As for `Clc1ccc2[nH]c3nc4ccccc4nc3c2c1`, the survival was inactive: 104%.
With `CCOC(=O)c1c(C)[nH]c(C)c1S(=O)(=O)N1CCC(C(=O)N2CCN(c3cccc(Cl)c3)CC2)CC1`, the survival was inactive: 67%.
The same measure for `CCOC(=O)c1cccc(NC(=O)NCc2cccn2Cc2ccccc2)c1`: inactive: 123%.
As to `Cc1ccc2occ(CC(=O)N(Cc3ccccc3Cl)C3CCS(=O)(=O)C3)c2c1` (stereo unspecified), the survival was inactive: 83%.
For `CC1CCC(Nc2nc3c(-c4ccc(Cl)cc4)nnn3c3ccccc23)CC1` (stereo unspecified), the survival was inactive: 25%.
`Cc1ccc(Cn2cc(CCC(=O)NC3CCC(C)CC3)c3ccccc32)cc1` (stereo unspecified): the survival was inactive: 98%.
As to `CC(=O)c1ccc(NC(=O)CN2C(=O)CCc3ccccc32)cc1`, the survival was inactive: 84%.
Turning to `CCn1c(SC)nnc1C1CCCN1CC(=O)N1CCN(Cc2ccc3c(c2)OCO3)CC1` (stereo unspecified), the survival is inactive: 101%.
On to `O=C(CSc1oc(-c2ccccc2)nc1S(=O)(=O)c1ccc(Cl)cc1)Nc1ccc(F)cc1`, for which the survival was inactive: 176%.
Consider `CC(=O)Nc1ccc(/C=C/c2nc(-c3ccccc3O)n(-c3ccccc3)n2)cc1`, for which the survival is inactive: 86%.
In the case of `O=C(NCc1cccnc1)c1cnn2c(C(F)F)cc(-c3ccccc3)nc12`, the survival is inactive: 107%.
With `COc1ccccc1CNS(=O)(=O)c1ccc2c(c1)NC(=O)C(C)C(=O)N2` (stereo unspecified), the survival was inactive: 89%.
The same measure for `Cn1c(=O)oc2cc(S(=O)(=O)N3CCCC(C(=O)NCCc4ccc(Cl)cc4)C3)ccc21` (stereo unspecified): inactive: 90%; for `Cc1cccc(-c2nc(C)c(CCNC(=O)C(=O)Nc3cccc(Cl)c3C)s2)c1`: inactive: 68%; for `O=C(Cn1cc(SCc2ccc(C(F)(F)F)cc2)c2ccccc21)N1CCOCC1`: inactive: 71%.
`Cc1ccc(-c2nc(-c3cc4c([nH]c3=O)CC(C)(C)CC4=O)sc2C)cc1`: the survival is inactive: 62%.
The same measure for `CCCCSc1nc(-c2ccc(OC)cc2)ccc1C#N`: inactive: 28%.
In the case of `COC(=O)c1ccccc1NC(=O)Cn1c(CCC(=O)O)ccc1-c1cccs1`, the survival is inactive: 72%.
As for `Cc1ccc2c(c1)c1c3n2CCN(C(=O)Cn2c(-c4ccccc4)noc2=O)C3CCC1` (stereo unspecified), the survival was inactive: 103%.
For the compound `O=C(NCc1ccccc1)c1cc2sccc2n1Cc1ccc(Cl)cc1`, the survival is inactive: 95%.
`COC(=O)CSc1ncc2c(n1)-c1ccccc1N(Cc1ccccc1C)S2(=O)=O`: the survival is inactive: 124%.
In the case of `CCOc1ccc(N(C)C(=O)CS(=O)(=O)c2cccc3nsnc23)cc1`, the survival was inactive: 102%.
For the compound `COc1ccccc1N1CCN(C(=O)C(CCSC)NS(=O)(=O)c2ccc3c(c2)oc(=O)n3C)CC1` (stereo unspecified), the survival is inactive: 79%.
As for `CC(C)Oc1ccc(CNC(=O)CCCN2C(=O)CCn3nc(-c4cccn4C)cc32)cc1`, the figure is inactive: 78%; as for `COc1ccc2nc3oc(C(=O)N4CCN(c5cc(C)ccc5C)CC4)cc3cc2c1`, inactive: 123%.
Take `CCC(=O)N1CCc2cc(S(=O)(=O)CCC(=O)Nc3ccc(OC(F)(F)F)cc3)ccc21`: the survival was inactive: 78%.
For the compound `COc1ccc(CC(=O)Nc2sc3c(c2C(=O)Nc2cccc(Cl)c2)CCCCC3)cc1`, the survival is inactive: 77%.
Regarding `Cc1nn(-c2ccccc2)c2c1N(CCCC(=O)NCc1ccc(N(C)C)cc1)C(=O)CS2`, the survival was inactive: 82%.
Regarding `O=C(c1ccco1)n1nc(-c2ccccc2)nc1NCc1ccc(Cl)cc1`, the survival is inactive: 85%.
With `CCC(=O)N1c2ccccc2CC1C(=O)N1CCN(c2cccc(Cl)c2)CC1` (stereo unspecified), the survival was inactive: 68%.
Turning to `CCN(CC)N=Nc1ccc(S(=O)(=O)Nc2nc(C)cc(C)n2)cc1`, the survival was inactive: 112%.
Take `CCc1ccc(NCc2cc3ccc(OC)cc3n(CC(=O)Nc3ccc(F)cc3F)c2=O)cc1`: the survival was inactive: 71%.
As for `Cc1nn2c(=O)cc(COC(=O)c3ccco3)nc2s1`, the survival was inactive: 72%.
As for `COc1cccc(CNCCSc2nnnn2C)c1OCc1ccccc1Cl`, the figure is inactive: 86%; as for `O=C(Nc1ccc(F)cc1)N1CCN(c2ccccc2F)CC1`, inactive: 151%; as for `CCc1cc2ccccc2nc1Cl`, inactive: 101%.
In the case of `COc1cccc(CNS(=O)(=O)c2ccc3c(c2)CCN3C(=O)C2CCC2)c1`, the survival is inactive: 68%.
Turning to `CCOC(=O)c1ccc(-n2c(CCC(=O)O)ccc2-c2ccc(Br)cc2)cc1`, the survival is inactive: 65%.
For the compound `COc1ccc(Cn2c(SCC(=O)NCc3ccc(Cl)cc3)nc3ccsc3c2=O)cc1`, the survival was inactive: 77%.

For the origin of these results see PubChem BioAssay AID463173 (ICCB-Longwood Screening Facility, Harvard Medical School, 2010).
